Data taken from PubChem BioAssay AID1159614 (National Center for Advancing Translational Sciences (NCATS), 2016).
Among all 45,000 compounds or so, about 65 (0.1%) were called active. The call rests on the fitted dose curve; in most records, active means well fitted activation curve with a large enough effect; inconclusive means small, poorly fitted or top-dose-only effect; inactive means no such curve, though single readings can be large or run the other way. Some of the results follow.

What follows are compounds tested against Galactocerebrosidase (Homo sapiens) (UniProt P54803) (assay: A Novel Cell-Based Assay to Identify Small Molecules for B -Galactocerebrosidase). Settings: 145M-Twi-hGALC-G270D cells, HMU-beta-Gal fluorescence, 48 h; series mostly up to 57.5 µM; activation: at the top concentration.
Sequence of UniProt P54803 (P54803 whole entry, looked up): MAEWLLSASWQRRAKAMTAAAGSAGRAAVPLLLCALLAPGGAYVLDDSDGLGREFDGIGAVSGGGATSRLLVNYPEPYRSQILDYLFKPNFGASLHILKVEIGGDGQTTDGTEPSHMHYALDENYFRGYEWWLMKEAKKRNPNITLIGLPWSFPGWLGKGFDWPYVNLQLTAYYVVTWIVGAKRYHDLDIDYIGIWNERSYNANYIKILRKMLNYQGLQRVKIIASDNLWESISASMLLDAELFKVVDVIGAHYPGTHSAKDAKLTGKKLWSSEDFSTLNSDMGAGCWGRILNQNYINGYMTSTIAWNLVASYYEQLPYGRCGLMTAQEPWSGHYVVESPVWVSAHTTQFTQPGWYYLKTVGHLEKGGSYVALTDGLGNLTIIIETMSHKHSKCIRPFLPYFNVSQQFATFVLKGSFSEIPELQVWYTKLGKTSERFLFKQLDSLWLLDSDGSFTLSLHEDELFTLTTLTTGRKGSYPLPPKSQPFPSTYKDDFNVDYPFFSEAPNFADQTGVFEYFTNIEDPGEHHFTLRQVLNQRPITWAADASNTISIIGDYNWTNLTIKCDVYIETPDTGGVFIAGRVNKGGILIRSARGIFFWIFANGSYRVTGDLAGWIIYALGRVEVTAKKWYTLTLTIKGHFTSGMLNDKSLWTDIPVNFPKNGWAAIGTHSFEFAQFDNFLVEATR
Outline: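 qHTS, 1536-well; 145M-Twi-hGALC-G270D cells (WT line also made) in DMEM/F12 + 10% FBS; compound incubation on live cells; HMU-β-gal 0.1 mM final, pH 5.2, NaTC; carbonate stop; fluorescence increase = enhanced residual activity.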
Further: 0% is about no effect; nearly all actives have a fitted effect of over 65% in size.

SMILES	activation
CCOC(=O)c1c(NC(=O)COc2cccc(C(F)(F)F)c2)sc2c1CCCCC2	inactive: -7.61%
COc1ccc(NC(=O)CC(C)n2nc(C)cc2C)cc1Cl (configuration not stated)	inactive: -13%
COc1ccc(CCNC(=O)CCc2c(C)c3cc4c(C)c(C)oc4cc3oc2=O)cc1	inactive: -5.07%
CCn1c(C(=O)Nc2cc(Cl)ccc2C)cc2sc(Cl)cc21	inactive: -11.6%
CCOc1ccc(CCNC(=O)Cn2ncn3c(cc4ccccc43)c2=O)cc1OCC	inactive: -5.27%
COc1cc(NC(=O)c2cnc3c(-c4ccc(F)cc4)c(C)nn3c2C)cc(OC)c1	inactive: -12.3%
Cc1ccc(Sc2c(C(=O)NCc3ccccc3C)[nH]c3ccccc23)cc1	inactive: -1.75%
COc1ccc(CNC(=O)CN2C(=O)CCCc3ccccc32)cc1	inactive: -6.75%
CCN(CC)S(=O)(=O)c1ccc2oc(C(=O)Nc3ccc(Br)cc3F)c(C)c2c1	inactive: -8.67%
Cc1ccc(-c2nc3ccc(Cl)cn3c2Nc2ccc3c(c2)OCCO3)s1	inactive: 2.45%
COc1cc(Nc2nc3c(S(=O)(=O)c4cccc(Cl)c4)nnn3c3ccsc23)cc(OC)c1	inactive: -16.3%
Cc1ccc2c(c1)c1c(c(=O)n(-c3cccc(Cl)c3)c(=O)n1CC(N)=O)n2C	inactive: -8.77%
CCOc1ccc(NC(=O)Cn2nc(CC)n3c(cc4sccc43)c2=O)cc1	inactive: -20.2%
COc1ccc(OCC(=O)Nc2cc(-c3nc4ccccc4o3)ccc2Cl)cc1	inactive: -8.12%
COC(=O)c1ccccc1NC(=O)Cn1c(=O)n(-c2ccc(C)cc2)c(=O)c2ccccc21	inactive: -10.7%
Cc1ccccc1OCCSc1nc2ccc(NC(=O)c3ccco3)cc2s1	inactive: -30.8%
Cc1ccc(NC(=O)CN2C(=O)c3ccccc3Sc3ccc(C(=O)N4CCOCC4)cc32)cc1C	inactive: -7.23%
O=C1Nc2ccccc2C1Cc1ccc(Br)cc1 (configuration not stated)	inactive: -10.9%
COc1ccccc1OCCNCC(O)COc1cccc2[nH]c3ccccc3c12 (configuration not stated)	inactive: -8.9%
CCC(=O)N1CCc2cc(S(=O)(=O)NCCC(=O)Nc3ccc(C)cc3C)ccc21	inactive: -11.4%
Cc1ccc(NC(=O)CSc2nc3nccnc3c(=O)n2CCc2c[nH]c3ccccc23)cc1C	inactive: -5.49%
Cc1ccc(CNC(=O)Cn2ccn(-c3ccc(F)c(F)c3)c(=O)c2=O)cc1	inactive: -17.8%
CCCn1c(=N)c(C(=O)NCc2ccco2)cc2c(=O)n3cc(C)ccc3nc21	inactive: -8.24%
CCC(Sc1nc2ccncc2[nH]1)C(=O)Nc1cc(C)ccc1C (configuration not stated)	inactive: 10.5%
Oc1c(C(c2ccc(Cl)cc2Cl)N2CCN(Cc3ccccc3)CC2)sc2nc(-c3ccco3)nn12 (configuration not stated)	inactive: -10.4%

SMILES	activation
CC(=O)c1cccc(NC(=O)c2cc3sc(Cl)cc3n2C)c1	inactive: -14.7%
CCOc1ccc(C(=O)Nc2ccc(C(=O)OCc3cc(=O)n4c(C)csc4n3)cc2)cc1	inactive: 4.66%
Cc1ccc(CNC(=O)c2ccc(N3Cc4ccccc4Oc4ncccc43)s2)cc1	inactive: -7.81%
CCOCCCNC(=O)C(c1ccc(Cl)cc1)N(Cc1ccc2c(c1)OCO2)C(=O)c1ccc(NC(C)=O)cc1 (configuration not stated)	inactive: -2.27%
CCC(=O)Nc1ccc(-c2nc3ncccc3o2)cc1C	inactive: -22.2%
CC(C)c1nc(CN(C)C(=O)N[C@H](C(=O)N[C@@H](Cc2ccccc2)C[C@H](O)[C@H](Cc2ccccc2)NC(=O)OCc2cncs2)C(C)C)cs1	inactive: -5.68%
COCCNC(=O)CCCn1c(SCc2ccccc2C)nc2c(sc3ccccc32)c1=O	inactive: -35.6%
Cc1ccc(C2N3CC4(C)CN2CC(c2ccccc2)(C3)C4=O)cc1 (configuration not stated)	inactive: -11.4%
CCn1cc(/C=C(\NC(=O)c2ccccc2Cl)C(=O)NCCCn2ccnc2)c2ccccc21	inactive: 1.76%
O=C(NCCc1ccccc1)c1ccc2c(c1)CCN2S(=O)(=O)c1ccc(Cl)cc1	inactive: -14.8%
CC1CCN(S(=O)(=O)c2ccc3c(c2)N(CC(=O)NCCN(C)C)C(=O)CS3)CC1	inactive: -3.17%
Cc1ccc2c(CC(=O)Nc3ccc(S(=O)(=O)N4CCCC(C)C4)cc3)coc2c1 (configuration not stated)	inactive: 2.78%
O=C(Cn1c(=O)c2cccn2c2ccc(F)cc21)Nc1cccc(F)c1	inactive: -2.57%
CCCCN(C)C(=O)C1CCC(Cn2c(=O)[nH]c3ccsc3c2=O)CC1 (configuration not stated)	inactive: -14.8%
COC(=O)c1cc(NC(=O)Cn2ncc3c([nH]c4ccccc43)c2=O)cc(C(=O)OC)c1	inactive: 6.32%
Cc1ccc(Cl)cc1NC(=O)c1cc(S(=O)(=O)N2CCOCC2)cn1C	inactive: -6.41%
COc1ccccc1CNc1ncnc2c1nc1n2CCCC1	inactive: -12.6%
Cc1cc(NC(=O)c2cc(-c3ccc(F)cc3)on2)nn1Cc1ccc(Cl)cc1	inactive: -27.3%
O=C(O)c1ccc2c(c1)N(Cc1ccc(F)cc1)C(=O)c1ccccc1S2=O (configuration not stated)	inactive: -9.29%
COc1ccccc1CNS(=O)(=O)c1c(C)nc2sc(C)cn2c1=O	inactive: -14.6%
Cc1oc2ncnc(N3CCOCC3)c2c1C(=O)Nc1ccc(Br)cc1F	inactive: -20.8%
CCOc1ccc(-c2cc3c(=O)n(CC(=O)NCc4ccccc4)ccn3n2)cc1	inactive: -9.23%
Fc1ccc(-n2nc(-c3ccccc3)c3cnc4ccccc4c32)cc1Cl	inactive: -7.53%
OC(c1ccccc1)c1nc2ccccc2n1Cc1c(F)cccc1Cl (configuration not stated)	inactive: -17.9%
O=C(Nc1ccc(Cl)cc1F)c1cc(S(=O)(=O)NC2CCCCCC2)ccc1F	inactive: -15.7%

SMILES	activation
CCCc1nn2c(=O)cc(COC(=O)c3ccccc3NC(=O)c3ccc(OCC)cc3)nc2s1	inactive: -12.4%
CC(C)CCNC(=O)C1CCC(CNS(=O)(=O)c2cccc3nsnc23)CC1 (configuration not stated)	inactive: -20.1%
CCc1ccc(NC(=O)CN2C(C(=O)OC)=C(c3ccccc3)c3ccccc3S2(=O)=O)cc1	inactive: -8.44%
O=C(CSc1nc(=O)n(Cc2ccccn2)c2c1CCC2)Nc1cccc(Cl)c1	inactive: -9.86%
COCCNC(=O)CSc1nc(-c2ccc(C)cc2)[nH]c1-c1ccc(OC)cc1	inactive: -20.2%
COc1ccc(Cl)cc1NC(=O)CSc1nc(=O)[nH]c2c1CCC2	inactive: -20.5%
Cc1cccc(NC(=O)c2oc3ccccc3c2NC(=O)Cc2coc3cc(C)cc(C)c23)c1	inactive: -12.7%
Cc1ccccc1OCC(=O)Nc1ccccc1C(=O)OCc1cc(=O)n2nc(C3CC3)sc2n1	inactive: -16%
Cc1ccc(C(=O)c2cn(Cc3ccccc3)c3ccccc3c2=O)cc1	inactive: -7.84%
Cc1cccc(-c2nc3cc(NC(=O)COc4ccccc4F)ccc3o2)c1	inactive: -15.1%
COc1ccc(NC(=O)Cn2ccn(-c3ccc(C)c(C)c3)c(=O)c2=O)cc1Cl	inactive: -8.79%
Cc1cc(N2CCN(c3ccc(F)cc3)CC2)n2cnnc2n1	inactive: -11.7%
Cc1ccc(-c2c3c(=O)n(C)c(=O)n(C)c3c3c(C)nc4ccccc4n23)cc1	inactive: -15.2%
CC1CCN(c2nc3ccccc3nc2C(F)(F)F)CC1	inactive: -10.4%
Cc1ccc2ncc(C(=O)c3ccc(C)c(C)c3)c(S(=O)(=O)c3ccccc3)c2c1	inactive: -6.91%
CCOc1cccc(C2c3c(oc4ccc(F)cc4c3=O)C(=O)N2c2cc(C)ccn2)c1 (configuration not stated)	inactive: -18.6%
O=C(Nc1nc2ccccc2n1CCOc1ccccc1Cl)c1ccccc1	inactive: -8.05%
Cc1cccc(CN2C(=O)c3ccccc3Sc3ccc(C(=O)NCCCN4CCOCC4)cc32)c1	inactive: 2.56%
CC1CN(C(=O)N2CCC(C(=O)NCc3ccco3)CC2)c2ccccc2O1 (configuration not stated)	inactive: -16.7%
CCN(CC)S(=O)(=O)c1nnc(NC(=O)c2ccc(C)cc2)s1	inactive: -15.4%
CC(=O)N1CCc2cc(S(=O)(=O)NC(Cc3ccccc3)C(=O)Nc3cc(C)cc(C)c3)ccc21 (configuration not stated)	inactive: -11.4%
CC1CCCCN1CCCNC(=O)Cn1ncc2c3ccccc3n(Cc3ccccc3)c2c1=O (configuration not stated)	inactive: -15.1%
COc1ccccc1N1CCN(Cc2nc(-c3cc(OC)c(OC)c(OC)c3)no2)CC1	inactive: 10.6%
COc1ccccc1C1C(C(=O)Nc2ccccc2)=C(C)Nc2nc(-c3ccccc3)nn21 (configuration not stated)	inactive: -19.2%
O=C(Cn1ncc2c3ccccc3n(Cc3ccccc3)c2c1=O)NCCCN1CCCCC1	inactive: -10.5%

SMILES	activation
Cc1ccc(Cl)cc1N1CCN(C(=O)CCc2nnc3n(C)c(=O)c4ccccc4n23)CC1	inactive: 4.56%
Cc1ccc(NC(=O)CSc2nc3n[nH]c(C)c3c(=N)n2-c2ccccc2C)cc1C	inactive: -14.5%
CCN(Cc1ccccc1)C(=O)c1cn(-c2cccc(OC)c2)c(=O)c2ccccc12	inactive: -9.61%
COc1ccc(CNC(=O)C(CC(C)C)NS(=O)(=O)c2ccc3c(c2)CCN3C(C)=O)cc1 (configuration not stated)	inactive: -14.3%
COc1ccc(-c2cc(C(=O)Oc3ccc(C#N)cc3)no2)cc1	inactive: -12.7%
O=S1(=O)c2ccccc2N(Cc2ccc(F)cc2)c2ccccc21	inactive: -14.1%
CCCc1cc(=O)[nH]c(SCc2nc(-c3ccccc3)no2)n1	inactive: -5.07%
O=C(NCCOCCn1c(=O)oc2ccccc21)Nc1ccc(F)cc1F	inactive: -14.8%
COc1ccc(Nc2nnc(-n3nc(C)cc3C)c3ccccc23)cc1	inactive: -9.89%
CNC(=O)c1c(I)c(NC(=O)CCCCC(=O)Nc2c(I)c(C(=O)O)c(I)c(C(=O)NC)c2I)c(I)c(C(=O)O)c1I	inactive: -3.02%
CCOc1ccc(NC(=O)CN(c2ccc(C)cc2)S(=O)(=O)c2cccs2)cc1	inactive: -1.93%
COc1ccc(CNC(=O)c2cc3c(=O)n(Cc4ccc(OC)cc4)ccc3nc2C)cc1	inactive: -9.36%
COc1cc(Br)cc2cc(S(=O)(=O)c3ccccc3)c(=O)oc12	inactive: -14.1%
Cc1cccc(NC(=O)CSc2nc3ccc(NC(=O)CCc4ccccc4)cc3s2)c1	inactive: -9.56%
Cc1ccc(-c2nc(CS(=O)(=O)CC(=O)N3CCN(c4ccccc4)CC3)c(C)o2)cc1	inactive: -22.3%
COc1cccc(NCc2nnc3n2CCCCC3)c1	inactive: -14.4%
Cc1ccc(-c2noc(-c3cccnc3N(C)Cc3ccc(Cl)cc3)n2)cc1	inactive: -14.4%
CCCSCCCNC(=O)c1sc2nc(C)cc(C)c2c1-n1cccc1	inactive: -23.4%
CCOc1ccc(CNCCSc2nnnn2C)cc1	inactive: -12.9%
CCc1ccc(C(=O)c2cn(CC(=O)Nc3cc(OC)cc(OC)c3)c3ccc(CC)cc3c2=O)cc1	inactive: -14.5%
CCc1cccc(C)c1Nc1c(-c2ccc(N(C)C)cc2)nc2cnccn12	inactive: -10.8%
COc1cccc(CNC(=O)c2ccc3nc(CCc4ccccc4)oc3c2)c1OC	inactive: -16.9%
